# Reference: the supplement of paper PMC11417369
# Some of the results follow.
# Test system: PfHDP1 homeodomain (GST-tagged)
# Assay: gcPBM binding intensity (ln(normalized median fluorescence intensity)); higher = stronger DNA binding
# In short: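 Binding intensity values are the highest Masliner-normalised natural-log median intensity among replicate spots of either probe orientation. The binding step lasted 1 h in 1× PBS with 1% milk, 0.2 mg/ml BSA, 0.5% salmon testes DNA and 0.03% Triton X-100, using GST-tagged P. falciparum DNA-binding domains expressed in E. coli on an Agilent 4 × 180k array of primer-extended double-stranded 36-bp intergenic genomic probes plus negative controls. Alexa488 anti-GST antibody and a 488 nm scan detected bound protein.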
row,Sequence,gcPBM binding intensity (ln)
1,AAAAAAAAAAAAAACATACACACAAGAACAAAATAT [CACACA_site3003],6.9
2,TAAAAAATAAAATACACACACATATTTATATTTATA [CACACA_site6737],6.45
3,ATGTTATATTTTTTTATACACACTGGAATATATAAA [CACACA_site215],6.71
4,ATTTATAATGAGTATACACACATATATAGATTTGCT [CACACA_site4517],6.65
5,ATTATTATTGTCAAATGTACAAGCTAATAATTTTTA [XGTACX_site7167],6.13
6,TATATATATATATATTGTACTTTATTTTATATATTC [XGTACX_site5697],9.11
7,ATATATATATATACATGTACATATATACATTATATT [XGTACX_site936],9.05
8,AAACATTTAAATGGAAACACAGAAAAATGAAAAATG [CACACA_negctrl_site457],7.11
9,TTTTTTTTTTGTAATACACACCACTATATGTTATTT [CACACA_site5087],6.86
10,ATATGTTACTTTACATAAAGAAGAAGAAGAAGAAAA [CACACA_negctrl_site985],6.27
11,TATTATTCAAATAAAAGAAAAATATATATATTATAT [GTGCAC_negctrl_site273],6.47
12,TTTCAAAAAGGAAGAAAAAAAAAAAAAAAAAATATA [XGTACX_negctrl_site514],5.88
13,ATATATATATATATATGTACATATTTTTTATTTTAT [XGTACX_site5761],9.37
14,AAAAAAAAAAAAAAAACACACATATATGTATATATA [CACACA_site3276],6.64
15,CAATTACGCAGGAATGCACACAATAATAAAAAAAAT [CACACA_site3513],8.88
16,TTTTTTCTTTTCAAGGTGCTTTATAAGAAAAAGGGA [GTGCAC_site9858],6.13
17,AAAAAAAAAAAAAACACACACACACCCAAATACATA [CACACA_site708],6.82
18,AGTATTATATTTTCTTGTACACATGTAAAATACCTC [XGTACX_site1359],6.79
19,TATATTAAAACAAGCACACAATCGCATAATATCCTT [CACACA_site3210],6.45

row,Sequence,gcPBM binding intensity (ln)
1,TATTTTATCATTTGCACACGCACACCCACATAAAAA [CACACA_site354],10.5
2,TTCTTATTTAATGTATCACACACGAGAATAAAAAAT [CACACA_site8992],6.82
3,CATATGGCAATAATTACATGCAAAAAAAAAAAAAAA [TGCATGCA_site578],6.4
4,AATGTAAAAGTAAACACACACATATATTTATACATA [CACACA_site7218],6.73
5,AGCCATATCTTTTTTGCACACACTACAATAAAACAA [CACACA_site1650],10.1
6,ACATTTAATGTTATATGTACATAATATTATAAGTAT [XGTACX_site1393],7.12
7,GTAAATCGACACATACGTACATACATTTATATATAT [XGTACX_site3143],6.8
8,AAAAAAAAGAAAAACACACACATATATATATATAAT [CACACA_site4707],6.64
9,ACAGACGTTCAAAGGTGTACGCAAAATGAATAATAT [XGTACX_site7565],6.95
10,TATATATATGGTTTAACACACGAGATAAAAGTATAT [CACACA_site2867],6.87
11,ATTGTGCTCATCAGCACACACAACATCATGTAATAA [CACACA_site1863],8.41
12,TTATATTTATAAAATTGTATACCCCTTCTAACTTTC [CACACA_negctrl_site250],6.7
13,TTTTAAATTTAATTTACACACTTTTCATAGCATTGA [CACACA_site3794],6.49
14,TTCTATTCACATTTTACACACGTCCATCGCATTTTA [CACACA_site3453],7.31
15,TATATGGTATGTATTACACACATATCACATATAGAT [CACACA_site7426],6.39
16,TTAATTAAAACGAATACACACATAAATATGTAAAAG [CACACA_site6707],6.37
17,TATATATATATATAATGTACTTATATTTTTTTGAGG [XGTACX_site2638],9.17
18,AAAAAAAAAAAAAAAAGTACATATATATATTTATAT [XGTACX_site5893],6.41
19,CATAAATCAGCCATAACACACATACATATATACATA [CACACA_site8025],6.55

row,Sequence,gcPBM binding intensity (ln)
1,ACACATATGTCTTCATGTACATAATATATAAATCTT [XGTACX_site3438],6.97
2,TCATTGAAAATTGTTGCACACATAATAATTAAATAT [CACACA_site8554],9.46
3,TATCTTTTTATTTTTTATTTTTTTTTTATAATTTAC [XGTACX_negctrl_site414],6.45
4,TGTTAAAAAATGGATGCACACATTAAATAAAAAGTA [CACACA_site1660],8.66
5,TATATATATACAGTTGCATGTTGTGTTTAAAATTTT [TGCATGCA_site816],7.86
6,TAAAGGTAGATATATTGTACATACACACCTATATAA [XGTACX_site6865],6.36
7,TCTTGTTTATCAACAGCACACACAACAACAACAACA [CACACA_site8046],6.8
8,TATAAATACGAACACACACACCTTATAATTACTACT [CACACA_site7827],6.75
9,TTATATTTAGTATATGCACACTTTATGTTTGTTATT [CACACA_site5163],9.53
10,AAAAACCATTGGCACACACACATAATATATAATATA [CACACA_site4903],6.83
11,AAGAAAGGTTAAACATGTACATAAATATTTTACATA [XGTACX_site5024],6.28
12,ACATTATATTTGGACTGTACTAATATATTGTTATAT [XGTACX_site5573],6.23
13,ATATATATATATATATGTACATATTGTATCTTATAC [XGTACX_site5466],9.29
14,TATACATATATATATTGTACATATTATATATATATA [XGTACX_site3286],8.6
15,GAATATTTATGATGAACTATTAATTAATTTTACATA [GTGCAC_negctrl_site353],6.08
16,AAATAAATTGAAGATACATGCATATTTTTTTTTTAT [TGCATGCA_site686],6.25
17,TTTATATTTTTTTTTGCACACTTTAAAAAAATATAT [CACACA_site1146],9.29
18,TATATATTACATAAAACACACAAAAAAAAAATTAAA [CACACA_site3882],6.74
